Test results reported in publication PMC8970588.
No constants are given. Whether binding was seen depends on the method and setting. Some entries that bind do so weakly or less than the wild type. Sequences can lack the tags named with a protein. Blank lines part the entries; values can stand above or below the binder they belong to.

Amino acid sequences for entries named in this document (tags omitted). A change or cut given only in a name is not applied to a line headed by its entry. Residues count along the entry.
UniProt P14126: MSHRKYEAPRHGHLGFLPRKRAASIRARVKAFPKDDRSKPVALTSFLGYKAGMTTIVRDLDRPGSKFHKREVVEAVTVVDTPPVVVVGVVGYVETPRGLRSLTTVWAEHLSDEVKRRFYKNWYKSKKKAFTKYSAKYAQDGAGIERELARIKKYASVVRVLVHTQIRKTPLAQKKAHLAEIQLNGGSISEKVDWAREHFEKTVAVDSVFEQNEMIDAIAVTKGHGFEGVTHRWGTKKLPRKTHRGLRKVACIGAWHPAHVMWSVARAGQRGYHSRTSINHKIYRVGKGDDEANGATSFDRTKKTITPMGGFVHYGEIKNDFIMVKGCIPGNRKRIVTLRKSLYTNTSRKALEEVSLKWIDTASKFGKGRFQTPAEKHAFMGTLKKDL
Rpl3.N52 (first 52 amino acids of Rpl3), yeast two-hybrid fusion: residues 1-52 of P14126
Rpl3.8C (Rpl3 lacking the first seven residues), yeast two-hybrid fusion: residues 8-387 of P14126

Legend:
Assay in all cases: two-hybrid; reporter strain PJ69-4A; bait fused to Gal4 DNA-binding domain, prey fused to Gal4 activation domain; growth on SC-Leu-Trp-His (HIS3) and SC-Leu-Trp-Ade (ADE2) plates, 3 days at 30°C
[1] = biological target: Rpl3.N52 K5E, yeast two-hybrid fusion (S. cerevisiae) (UniProt P14126)
[2] = biological target: Rpl3.H3E (full-length), yeast two-hybrid fusion (S. cerevisiae) (UniProt P14126)
[3] = biological target: Rpl3.Y6E (full-length), yeast two-hybrid fusion (S. cerevisiae) (UniProt P14126)
[4] = biological target: Rpl3.R10E/H11E (full-length), yeast two-hybrid fusion (S. cerevisiae) (UniProt P14126)
[5] = biological target: Rpl3.N52 R10E/H11E, yeast two-hybrid fusion (S. cerevisiae) (UniProt P14126)
[6] = biological target: Rpl3.N52 H3E, yeast two-hybrid fusion (S. cerevisiae) (UniProt P14126)
[7] = biological target: Rpl3.N52 Y6E, yeast two-hybrid fusion (S. cerevisiae) (UniProt P14126)
[8] = biological target: Rpl3.8C (Rpl3 lacking the first seven residues), yeast two-hybrid fusion (S. cerevisiae) (UniProt P14126)
[9] = biological target: Rpl3.N52 (first 52 amino acids of Rpl3), yeast two-hybrid fusion (S. cerevisiae) (UniProt P14126)
[10] = biological target: Rpl3.F46A/L47A (full-length), yeast two-hybrid fusion (S. cerevisiae) (UniProt P14126)
[11] = biological target: full-length Rpl3, yeast two-hybrid fusion (S. cerevisiae) (UniProt P14126)
[12] = biological target: Rpl3.N52 H13A/L14A, yeast two-hybrid fusion (S. cerevisiae) (UniProt P14126)
[13] = biological target: Rpl3.H13A/L14A (full-length), yeast two-hybrid fusion (S. cerevisiae) (UniProt P14126)
[14] = biological target: Rpl3.K5E (full-length), yeast two-hybrid fusion (S. cerevisiae) (UniProt P14126)
[15] = biological target: Rpl3.R10A/H11A (full-length), yeast two-hybrid fusion (S. cerevisiae) (UniProt P14126)
[16] = biological target: Rpl3.F16A/L17A (full-length), yeast two-hybrid fusion (S. cerevisiae) (UniProt P14126)
[17] = biological target: Rpl3.N52 F46A/L47A, yeast two-hybrid fusion (S. cerevisiae) (UniProt P14126)
[18] = biological target: Rpl3.N52 R10A/H11A, yeast two-hybrid fusion (S. cerevisiae) (UniProt P14126)
[19] = biological target: T1, full-length Btt1, yeast two-hybrid fusion (S. cerevisiae) (UniProt P40314)
T1 sequence: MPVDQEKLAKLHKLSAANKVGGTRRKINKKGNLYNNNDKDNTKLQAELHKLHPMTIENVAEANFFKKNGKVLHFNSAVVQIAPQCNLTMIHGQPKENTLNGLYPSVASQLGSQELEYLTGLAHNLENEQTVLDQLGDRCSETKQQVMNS

[20] = biological target: T2, full-length Egd2, yeast two-hybrid fusion (S. cerevisiae) (UniProt P38879)
T2 sequence: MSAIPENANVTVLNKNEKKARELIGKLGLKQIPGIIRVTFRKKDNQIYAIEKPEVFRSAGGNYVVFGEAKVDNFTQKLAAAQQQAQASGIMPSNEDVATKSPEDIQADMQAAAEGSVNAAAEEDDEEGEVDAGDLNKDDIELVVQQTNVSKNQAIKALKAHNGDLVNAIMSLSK

[21] = biological target: T3, full-length Egd1, yeast two-hybrid fusion (S. cerevisiae) (UniProt Q02642)
T3 sequence: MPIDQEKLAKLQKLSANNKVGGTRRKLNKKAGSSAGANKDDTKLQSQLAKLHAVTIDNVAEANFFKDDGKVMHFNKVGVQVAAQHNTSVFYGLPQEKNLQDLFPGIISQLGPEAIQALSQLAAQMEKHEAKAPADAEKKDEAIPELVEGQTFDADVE

- binding [1]: no binding
- binding [2]: no binding
- binding [3]: no binding
- binding [4]: binds
- binding [5]: binds
- binding [6]: no binding
- binding [7]: no binding
- binding [8]: no binding
- binding [9]: binds
- binding [10]: no binding
- binding [11]: binds
- binding [12]: binds
- binding [13]: binds
- binding [14]: no binding
- binding [15]: binds
- binding [16]: binds
- binding [17]: binds
- binding [18]: binds
B1: full-length Rrb1, yeast two-hybrid fusion (protein, UniProt Q04225 1-511)
chain: MSKRSIEVNEEQDRVVSAKTESHSVPAIPASEEQDAPKNDLEEQLSDEFDSDGEIIEIDGDDEINDEDDLRKKQEEAETLVQKDQSEGNKEKIQELYLPHMSRPLGPDEVLEADPTVYEMLHNVNMPWPCLTLDVIPDTLGSERRNYPQSILLTTATQSSRKKENELMVLALSNLAKTLLKDDNEGEDDEEDDEDDVDPVIENENIPLRDTTNRLKVSPFAISNQEVLTATMSENGDVYIYNLAPQSKAFSTPGYQIPKSAKRPIHTVKNHGNVEGYGLDWSPLIKTGALLSGDCSGQIYFTQRHTSRWVTDKQPFTVSNNKSIEDIQWSRTESTVFATAGCDGYIRIWDTRSKKHKPAISVKASNTDVNVISWSDKIGYLLASGDDNGTWGVWDLRQFTPSNADAVQPVAQYDFHKGAITSIAFNPLDESIVAVGSEDNTVTLWDLSVEADDEEIKQQAAETKELQEIPPQLLFVHWQKEVKDVKWHKQIPGCLVSTGTDGLNVWKTISV

- binding [19]: no binding
- binding [20]: no binding
- binding [21]: no binding
B2: full-length Cal4, yeast two-hybrid fusion (protein, UniProt P47086 1-261)
chain: MSETRESNESTVSSLQTKLLLNDGISENNKKNVILLNQIVPFILNTSHYMTDLMYVLYYLAQKQEDEVLNHSGTFISHKKELLALKSDICELIYDLRTGFRLLLDSCELDHFETPGKCRHLIEKVLVTSIYGVNRYIFQELNRLNVDFKDEFILQMQNCLSGFVNLYKFLNKIPMSKQQSQMNDLQMKILVNVLQNELLPIWKFQLDLLNCKLFNELSKDKGLINIYRKATNDSVIDVSKGEPFIRYVNWLKDQIIGEMTV
